These results are taken from patent US20250281631A1, “ANTIBODY-DRUG CONJUGATES AND PREPARATION METHODS AND USE THEREOF” (SICHUAN KELUN-BIOTECH BIOPHARMACEUTICAL CO., LTD, priority 2022, published 2025).

As a reminder, the T/C is the result in the treated group divided by that in the control group, in per cent.

Assay [1] concerns HEK293T-h HER3 cells. Put plainly: In vitro cytotoxicity of anti-human HER3 ADCs (CCK8, 6 days). The class given is cell-based. The note with it: result in words; Table 33, FIGS. 2A-2C. The source says: 2. In Vitro Cytotoxicity of Anti-Human HER3 Antibody-Drug Conjugates
A further assay has as its system HEK293T negative cells. The assay is described as follows: Bystander effect test, negative cells alone (flow cytometry, PI). The note with it: ADC 20 nM, 4 nM, 0.8 nM dilutions, 4 days. Format: cell-based. Here is the method:
(§1) 3. Bystander Effect of Anti-Human HER3 Antibody-Drug Conjugates
(§2) HEK293T and HEK293T-h HER3 cells were digested with 0.25% Trypsin-EDTA (manufacturer: Gibco), counted, and an appropriate amount of the cells were taken, washed twice with 1×PBS, the cell density was adjusted to 1×10^6 cells/ml, and then Cell Trace Violet was added to reach a final concentration of 5 μM for labeling, mixed well and incubated in an incubator for 20 min, then the cells were washed with growth medium and counted, plated on 24-well plates (500 μl/well) according to the following ratios: HEK293T-labeled: HEK293T=4000:12000 cells/well, HEK293T-labeled: HEK293T-h HER3=4000:12000 cells/well, HEK293T-h HER3-labeled: HEK293T-h HER3=4000:12000 cells/well, and cultured overnight at 37° C., 5% CO2;
(§3) On the next day, ADC was diluted with growth medium to reach concentrations of 20 nM, 4 nM, and 0.8 nM, then 500 μl of the diluted ADC was taken and added to the corresponding 24-well plates containing cells, and the plates were placed and cultured in an incubator at 37° C., 5% CO2 for 4 days;
(§4) HEK293T and HEK293T-h HER3 cells were digested with 0.25% Trypsin-EDTA, added to a growth medium containing PI with a final concentration of 3 μM, mixed well, incubated at room temperature for 15 min, and then detected by flow cytometry (Thermo, model: Attune NxT).
(In general: In flow cytometry, cells or beads pass a laser one at a time.)

The subject of assay [2] is HEK293T-h HER3 cells. The assay is described as follows: Bystander effect test, positive cells alone (flow cytometry, PI). The class given is cell-based, human. The note with it: 4 days. The method, then:
as §1, §2, §3, §4

In assay [3] the test system is human breast cancer MDA-MB-453 xenograft tumor model. Put plainly: In vivo drug efficacy in MDA-MB-453 CDX model. Conditions: for Tumor regression CR (n = 6) / Tumor regression PR (n = 6): Day 32, number of animals of 6; for T/C / TGI / Tumor volume (x ± SEM): tail vein, Day 32. On the set-up: species or system female NCG immunodeficient mice. The source says:
The following formula was used to calculate the tumor growth inhibition rate TGI (%), which was used to evaluate the tumor inhibitory efficacy:
[formula] • wherein, • VTend represented a mean value of tumor volume at the end of the experiment in a treatment group • VTstart represented a mean value of tumor volume at the beginning of the administration in a treatment group • VCend represented a mean value of tumor volume at the end of the experiment in the negative control group • VCstart represented a mean value of tumor volume at the beginning of the administration in the negative control group
7. Detection of In Vivo Drug Efficacy of Anti-Human HER3 Antibody-Drug Conjugates in MDA-MB-453 Model
Human breast cancer cell line MDA-MB-453 was cultured in DMEM/F12 medium containing 10% fetal bovine serum at 37° C. and 5% CO2. The MDA-MB-453 cells in the exponential growth phase were collected, resuspended to an appropriate concentration by adding PBS and Matrigel at 50% of the final concentration, and inoculated subcutaneously in female NCG immunodeficient mice to establish a human breast cancer xenograft tumor model. When the average volume of tumor was about 150 mm^3, the animals were randomly divided into groups according to the tumor size, including: vehicle control group, hIgG1-A-07-A 3 mg/kg group, ADC 22B6-A-07-A-1 1 mg/kg group, 3 mg/kg group and 10 mg/kg group, hIgG1-A-01 3 mg/kg group, U1-59-A-01 3 mg/kg group and 10 mg/kg group, hIgG1-B-03-2 3 mg/kg group, ADC 22B6-B-03-2 3 mg/kg group. After the grouping, the animals were given a single dose via injection through tail vein on Day0. After administration, the tumor volume and body weight of the mice were observed and regularly measured, and the specific results were shown in Table 36, and FIGS. 7A, 7B.

A further assay concerns MDA-MB-453 cells. Put plainly: Cell affinity of anti-human HER3 antibody and its drug conjugates by flow cytometry (second test, Table 37). Format: binding. The method, then:
8. Detection of Cell Affinity of Anti-Human HER3 Antibody and its Drug Conjugates
The affinity of anti-human HER3 ADC to MDA-MB-453 cells was detected by flow cytometry (Beckman, model Cytoflex).
Adherent MDA-MB-453 cells were digested with Tryple (manufacturer: Gibco) solution, counted, and an appropriate amount of the cells were taken, washed twice with 1×PBS, resuspended in 1% BSA solution, and then transferred to a 96-well sharp-bottom plate, 50 μl per well; candidate antibodies and drug conjugates thereof were diluted with 1% BSA by 3-fold serial dilution starting from 15 μg/mL, and then 50 μl of the diluted antibody or antibody-drug conjugate was added to the sharp-bottom plate containing the cells, and incubation was carried out at 4° C. for 40 minutes; the cells were washed twice with PBS, then added with 50 μl of diluted secondary antibody to each well, mixed, and incubated at 4° C. for 30 minutes; the cells were washed with PBS twice, then resuspended in 200 μl of PBS and detected by flow cytometry. Data processing: the average fluorescence signal values were exported, and then input into GraphPad Prism 6 software to calculate EC50.

B1: 22B6-A-07-A-1: ADC of antibody 22B6D2-hIgG1 conjugated to drug-linker A-07-A, DAR 7.99 (conjugate)
heavy: EVHLVESGGGVVQPGRSLRLSCATSGFTFRSYGMHWVRQAPGKGLEWVAVIWYDGSNKYYADSVKGRFTISRDISKNTLYLQMNSLTAEDTAVYYCARYYYDSNGYYDAFDIWGQGTMVTVSSASTKGPSVFPLAPSSKSTSGGTAALGCLVKDYFPEPVTVSWNSGALTSGVHTFPAVLQSSGLYSLSSVVTVPSSSLGTQTYICNVNHKPSNTKVDKRV[in this place human IgG1 Fc]
light: DIQLTQSPSFLSASVGDRVTITCRASQGISNYLAWYQQKPGKAPKLLIFAASTLQSGVPSRFSGSGSGAEFTLTISSLEPEDFATYYCQQLNSYPITFGQGTRLEIKRTVAAPSVFIFPPSDEQLKSGTASVVCLLNNFYPREAKVQWKVDNALQSGNSQESVTEQDSKDSTYSLSSTLTLSKADYEKHKVYACEVTHQGLSSPVTKSFNRGEC
As to B1, the target-specific killing effect entry in the assay on HEK293T-h HER3 cells [1] is “target-specific killing effect”. Also, in the assay with HEK293T negative cells, the “killing of HEK293T negative cells” value is recorded as “basically did not kill HEK293T negative cells”. The “killing of HEK293T-HER3 cells” value with HEK293T-h HER3 cells [2] is on record as “significant specific killing effect”. In addition, the figures for the “Tumor regression CR (n = 6)” value in assay [3] (1 mg/kg single dose), in assay [3] (3 mg/kg single dose) and in assay [3] (10 mg/kg single dose) were 0/0, 0 and 6, respectively. The figures for the “Tumor regression PR (n = 6)” value in assay [3] (1 mg/kg single dose), in assay [3] (3 mg/kg single dose) and in assay [3] (10 mg/kg single dose) were 0/0, 3 and 0, respectively. In addition, the T/C in assay [3] (1 mg/kg single dose) is listed as 55.64%; in assay [3] (3 mg/kg single dose) it was 23.05%; in assay [3] (10 mg/kg single dose), 0.00%. For the same molecule, the TGI amounted to 62.07% in assay [3] (1 mg/kg single dose); 62.07% in assay [3] (1 mg/kg, single dose); 118.30% in assay [3] (3 mg/kg single dose); 118.30% in assay [3] (3 mg/kg, single dose); 200.00% in assay [3] (10 mg/kg single dose); 200.00% in assay [3] (10 mg/kg, single dose). Besides, the “Tumor volume (x ± SEM)” value in assay [3] (1 mg/kg single dose) is given as 291.74 ± 18.54 mm^3; in assay [3] (3 mg/kg single dose) it was 120.03 ± 25.22 mm^3; in assay [3] (10 mg/kg single dose), 0.00 ± 0.00 mm^3. Moreover, in assay [3] (10 mg/kg, single dose, no growth observed by Day32), the tumor regression result is “completely regressed from Day 19”. In the assay with MDA-MB-453 cells, this molecule yielded an EC50 cell affinity of 0.1469 µg/mL.
